Test results reported in ChEMBL document CHEMBL1961873, “Compounds: GSK PKIS; Assays: Nanosyn kinase panel” (2012).
For part of these data: What follows is the remainder of the data, with few or none of the strong results. This is a selection; strong and weak results do not stand in their true shares.

How the values were obtained:
[1] = molecular target: Platelet-derived growth factor receptor beta (Homo sapiens) (UniProt P09619); conditions: at 1 µM;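 note: each value is a mean percent inhibition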
[2] = molecular target: Tyrosine-protein kinase FRK (Homo sapiens) (UniProt P42685); conditions: at 0.1 µM
[3] = molecular target: Tyrosine-protein kinase FRK (Homo sapiens) (UniProt P42685); conditions: at 1 µM
[4] = molecular target: Protein-tyrosine kinase 2-beta (Homo sapiens) (UniProt Q14289); conditions: at 0.1 µM
Chain of UniProt Q14289 (Q14289 whole entry, looked up): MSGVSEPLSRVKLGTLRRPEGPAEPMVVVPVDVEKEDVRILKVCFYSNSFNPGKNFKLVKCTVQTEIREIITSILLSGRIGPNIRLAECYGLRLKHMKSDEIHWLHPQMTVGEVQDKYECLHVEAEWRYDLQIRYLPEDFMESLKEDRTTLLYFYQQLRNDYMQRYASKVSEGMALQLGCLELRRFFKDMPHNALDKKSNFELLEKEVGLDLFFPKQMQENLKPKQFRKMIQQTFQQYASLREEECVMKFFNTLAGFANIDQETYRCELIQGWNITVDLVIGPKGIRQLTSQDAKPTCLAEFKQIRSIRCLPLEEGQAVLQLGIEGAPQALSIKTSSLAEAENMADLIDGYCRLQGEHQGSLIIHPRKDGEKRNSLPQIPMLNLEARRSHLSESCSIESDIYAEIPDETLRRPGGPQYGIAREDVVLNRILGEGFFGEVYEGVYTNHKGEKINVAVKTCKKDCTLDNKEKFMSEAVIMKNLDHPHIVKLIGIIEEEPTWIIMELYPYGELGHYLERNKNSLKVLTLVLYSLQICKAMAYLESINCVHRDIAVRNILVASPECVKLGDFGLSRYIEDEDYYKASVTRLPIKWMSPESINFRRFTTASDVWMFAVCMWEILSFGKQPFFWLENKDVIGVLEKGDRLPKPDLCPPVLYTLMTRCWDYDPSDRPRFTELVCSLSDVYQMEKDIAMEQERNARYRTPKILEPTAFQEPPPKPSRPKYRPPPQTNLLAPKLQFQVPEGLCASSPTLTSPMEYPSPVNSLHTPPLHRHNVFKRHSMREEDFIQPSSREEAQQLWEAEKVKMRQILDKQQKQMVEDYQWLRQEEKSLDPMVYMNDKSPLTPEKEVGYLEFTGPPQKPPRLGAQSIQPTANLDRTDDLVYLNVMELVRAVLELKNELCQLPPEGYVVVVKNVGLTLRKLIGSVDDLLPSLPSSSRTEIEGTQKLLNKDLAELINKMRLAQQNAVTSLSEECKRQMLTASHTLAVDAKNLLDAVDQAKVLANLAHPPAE

[5] = molecular target: Protein-tyrosine kinase 2-beta (Homo sapiens) (UniProt Q14289); conditions: at 1 µM
[6] = molecular target: Proto-oncogene tyrosine-protein kinase receptor Ret (Homo sapiens) (UniProt P07949); conditions: at 0.1 µM
[7] = molecular target: Proto-oncogene tyrosine-protein kinase receptor Ret (Homo sapiens) (UniProt P07949); conditions: at 1 µM
[8] = system: Proto-oncogene tyrosine-protein kinase receptor Ret (Homo sapiens), P07949 [V804L]; conditions: at 0.1 µM
[9] = system: Proto-oncogene tyrosine-protein kinase receptor Ret (Homo sapiens), P07949 [V804L]; conditions: at 1 µM
[10] = system: Proto-oncogene tyrosine-protein kinase receptor Ret (Homo sapiens), P07949 [Y791F]; conditions: at 0.1 µM
[11] = system: Proto-oncogene tyrosine-protein kinase receptor Ret (Homo sapiens), P07949 [Y791F]; conditions: at 1 µM
[12] = molecular target: Macrophage-stimulating protein receptor (Homo sapiens) (UniProt Q04912); conditions: at 1 µM
Chain of UniProt Q04912 (Q04912 whole entry): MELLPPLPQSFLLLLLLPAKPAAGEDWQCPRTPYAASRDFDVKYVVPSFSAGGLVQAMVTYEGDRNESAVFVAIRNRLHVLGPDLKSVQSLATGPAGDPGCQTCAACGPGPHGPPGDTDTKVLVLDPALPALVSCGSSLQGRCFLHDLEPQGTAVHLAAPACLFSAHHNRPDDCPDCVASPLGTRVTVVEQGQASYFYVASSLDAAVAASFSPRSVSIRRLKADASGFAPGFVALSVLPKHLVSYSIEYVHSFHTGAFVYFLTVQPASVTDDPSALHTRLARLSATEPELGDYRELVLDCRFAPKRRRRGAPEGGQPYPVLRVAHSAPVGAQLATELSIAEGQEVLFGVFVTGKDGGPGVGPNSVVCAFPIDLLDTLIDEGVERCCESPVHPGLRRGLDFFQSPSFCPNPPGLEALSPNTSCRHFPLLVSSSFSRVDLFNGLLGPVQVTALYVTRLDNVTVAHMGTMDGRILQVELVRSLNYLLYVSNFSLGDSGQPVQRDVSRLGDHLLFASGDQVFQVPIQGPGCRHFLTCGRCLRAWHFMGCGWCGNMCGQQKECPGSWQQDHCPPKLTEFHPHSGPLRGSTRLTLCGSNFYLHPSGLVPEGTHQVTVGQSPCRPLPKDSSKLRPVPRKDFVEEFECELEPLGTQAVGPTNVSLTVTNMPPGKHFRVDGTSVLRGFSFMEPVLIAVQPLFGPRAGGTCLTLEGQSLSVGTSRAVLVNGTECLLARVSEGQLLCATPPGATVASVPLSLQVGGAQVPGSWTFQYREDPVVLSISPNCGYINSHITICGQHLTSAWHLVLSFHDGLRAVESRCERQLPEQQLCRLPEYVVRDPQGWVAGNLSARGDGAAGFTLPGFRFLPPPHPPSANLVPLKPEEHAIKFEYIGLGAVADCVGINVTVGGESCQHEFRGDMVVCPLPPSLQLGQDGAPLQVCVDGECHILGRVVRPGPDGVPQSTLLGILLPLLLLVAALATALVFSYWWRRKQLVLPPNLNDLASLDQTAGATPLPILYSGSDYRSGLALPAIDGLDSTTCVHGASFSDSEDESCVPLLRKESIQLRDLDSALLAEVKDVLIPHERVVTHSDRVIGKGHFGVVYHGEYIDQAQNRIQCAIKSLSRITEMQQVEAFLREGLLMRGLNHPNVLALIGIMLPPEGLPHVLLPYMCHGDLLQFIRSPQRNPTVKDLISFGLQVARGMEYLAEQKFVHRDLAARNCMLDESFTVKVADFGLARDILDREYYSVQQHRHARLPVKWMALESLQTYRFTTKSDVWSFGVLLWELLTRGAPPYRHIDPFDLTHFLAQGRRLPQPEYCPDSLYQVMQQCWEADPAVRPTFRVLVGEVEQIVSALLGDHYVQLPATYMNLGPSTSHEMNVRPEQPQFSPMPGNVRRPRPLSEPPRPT

[13] = molecular target: Proto-oncogene tyrosine-protein kinase ROS (Homo sapiens) (UniProt P08922); conditions: at 0.1 µM
Chain of UniProt P08922 (P08922 whole entry): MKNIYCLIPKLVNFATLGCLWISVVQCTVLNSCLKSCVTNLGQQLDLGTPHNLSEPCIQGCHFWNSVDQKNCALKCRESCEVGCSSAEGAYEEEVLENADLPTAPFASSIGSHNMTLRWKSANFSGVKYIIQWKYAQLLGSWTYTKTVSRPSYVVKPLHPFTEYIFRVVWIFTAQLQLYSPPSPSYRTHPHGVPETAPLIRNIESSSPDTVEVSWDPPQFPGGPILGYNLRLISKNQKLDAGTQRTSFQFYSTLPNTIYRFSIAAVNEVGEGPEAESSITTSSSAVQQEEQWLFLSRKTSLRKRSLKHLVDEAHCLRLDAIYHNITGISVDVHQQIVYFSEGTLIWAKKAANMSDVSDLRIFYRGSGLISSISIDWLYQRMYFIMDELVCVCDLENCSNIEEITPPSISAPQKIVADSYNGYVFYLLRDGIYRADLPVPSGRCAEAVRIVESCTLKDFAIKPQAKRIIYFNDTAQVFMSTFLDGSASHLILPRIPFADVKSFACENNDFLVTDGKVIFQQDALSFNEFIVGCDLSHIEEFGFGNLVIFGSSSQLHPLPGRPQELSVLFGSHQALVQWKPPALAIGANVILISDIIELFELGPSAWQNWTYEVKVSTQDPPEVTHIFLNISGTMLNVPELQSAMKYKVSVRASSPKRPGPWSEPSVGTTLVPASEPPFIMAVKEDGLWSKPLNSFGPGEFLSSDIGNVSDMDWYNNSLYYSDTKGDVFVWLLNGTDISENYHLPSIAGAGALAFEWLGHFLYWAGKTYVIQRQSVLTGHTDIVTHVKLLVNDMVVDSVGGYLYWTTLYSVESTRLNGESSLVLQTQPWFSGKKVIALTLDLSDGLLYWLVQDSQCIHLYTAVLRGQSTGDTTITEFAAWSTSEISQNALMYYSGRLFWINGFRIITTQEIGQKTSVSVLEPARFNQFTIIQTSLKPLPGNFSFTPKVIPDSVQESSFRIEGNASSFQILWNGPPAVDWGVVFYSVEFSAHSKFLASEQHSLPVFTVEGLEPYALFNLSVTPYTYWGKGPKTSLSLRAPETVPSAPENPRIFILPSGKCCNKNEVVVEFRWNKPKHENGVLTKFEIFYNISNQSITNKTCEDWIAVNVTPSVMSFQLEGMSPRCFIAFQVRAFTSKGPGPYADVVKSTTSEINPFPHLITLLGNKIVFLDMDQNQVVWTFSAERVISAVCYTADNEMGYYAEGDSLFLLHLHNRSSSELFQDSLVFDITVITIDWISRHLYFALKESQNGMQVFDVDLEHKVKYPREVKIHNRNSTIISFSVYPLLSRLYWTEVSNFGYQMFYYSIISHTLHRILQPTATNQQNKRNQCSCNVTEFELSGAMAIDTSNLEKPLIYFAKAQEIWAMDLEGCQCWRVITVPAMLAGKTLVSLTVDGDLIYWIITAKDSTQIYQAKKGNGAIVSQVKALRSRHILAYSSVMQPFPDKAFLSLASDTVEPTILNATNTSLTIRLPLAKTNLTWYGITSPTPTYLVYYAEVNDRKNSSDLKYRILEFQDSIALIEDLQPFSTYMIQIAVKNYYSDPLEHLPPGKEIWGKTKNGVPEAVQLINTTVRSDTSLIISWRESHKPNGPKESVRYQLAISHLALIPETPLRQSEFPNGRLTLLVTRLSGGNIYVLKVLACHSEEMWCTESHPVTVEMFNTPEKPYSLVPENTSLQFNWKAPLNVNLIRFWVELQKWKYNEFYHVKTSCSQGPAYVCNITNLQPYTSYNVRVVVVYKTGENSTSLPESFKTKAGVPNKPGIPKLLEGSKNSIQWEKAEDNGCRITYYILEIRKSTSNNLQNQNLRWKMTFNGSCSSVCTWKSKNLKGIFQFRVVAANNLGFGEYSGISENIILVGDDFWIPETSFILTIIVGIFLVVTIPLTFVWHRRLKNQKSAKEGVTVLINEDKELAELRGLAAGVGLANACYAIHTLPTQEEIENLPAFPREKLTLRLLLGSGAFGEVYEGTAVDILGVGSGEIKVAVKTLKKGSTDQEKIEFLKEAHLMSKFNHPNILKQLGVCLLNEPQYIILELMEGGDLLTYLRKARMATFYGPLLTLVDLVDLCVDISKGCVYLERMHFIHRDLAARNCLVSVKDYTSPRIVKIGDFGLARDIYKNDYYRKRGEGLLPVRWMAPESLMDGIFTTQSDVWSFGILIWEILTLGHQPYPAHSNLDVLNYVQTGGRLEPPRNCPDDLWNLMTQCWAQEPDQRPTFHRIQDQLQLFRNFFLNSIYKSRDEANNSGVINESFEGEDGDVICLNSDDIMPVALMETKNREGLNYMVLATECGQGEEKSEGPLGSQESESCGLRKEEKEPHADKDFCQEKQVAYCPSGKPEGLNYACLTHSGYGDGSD

[14] = molecular target: Proto-oncogene tyrosine-protein kinase ROS (Homo sapiens) (UniProt P08922); conditions: at 1 µM
[15] = molecular target: Proto-oncogene tyrosine-protein kinase Src (Homo sapiens) (UniProt P12931); conditions: at 0.1 µM
[16] = molecular target: Proto-oncogene tyrosine-protein kinase Src (Homo sapiens) (UniProt P12931); conditions: at 1 µM
[17] = molecular target: Tyrosine-protein kinase Srms (Homo sapiens) (UniProt Q9H3Y6); conditions: at 0.1 µM
[18] = molecular target: Tyrosine-protein kinase Srms (Homo sapiens) (UniProt Q9H3Y6); conditions: at 1 µM
[19] = molecular target: Tyrosine-protein kinase SYK (Homo sapiens) (UniProt P43405); conditions: at 0.1 µM;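 note: reported percentages are mean inhibition values for SYK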
[20] = molecular target: Macrophage-stimulating protein receptor (Homo sapiens) (UniProt Q04912); conditions: at 0.1 µM

SMILES	inhibition [1] [%]	inhibition [2] [%]	inhibition [3] [%]	inhibition [4] [%]	inhibition [5] [%]	inhibition [6] [%]	inhibition [7] [%]	inhibition [8] [%]	inhibition [9] [%]	inhibition [10] [%]	inhibition [11] [%]	inhibition [12] [%]	inhibition [13] [%]	inhibition [14] [%]	inhibition [15] [%]	inhibition [16] [%]	inhibition [17] [%]	inhibition [18] [%]	inhibition [19] [%]	inhibition [20] [%]
Fc1ccc(-c2ncn(C3CCNCC3)c2-c2ccnc(Oc3ccc(Cl)cc3)n2)cc1	4.24	0.37	1.55	3.12	8.77	-0.56	0.73	2.11	1.61	1.66	2.31	0.73	2.81	2.37	1.09	2.18	0.88	-2.37	1.97	
O=C1NC(=O)C(c2ccccc2Cl)=C1Nc1cc(Cl)c(O)c(Cl)c1	14.1	1.41	0.33	10.1	13	3.05	5.72	0.66	17.1	0.8	14.8	3.62	1.97	4.36	0.44	8.47	-9.89	-0.11	-1.87	0.51
Cc1cccc(Oc2nccc(-c3c(-c4ccc(F)cc4)ncn3C3CCNCC3)n2)c1C	7.07	2.34	3.3	5.26	7.9	3.65	7.22	3.71	8.02	5.73	8.15	4.58	3.37	6.68	6.18	6.58	-3.49	-3.09	-1.99	2.84
Fc1ccc(-c2ncn(C3CCNCC3)c2-c2ccnc(Oc3cccc(C(F)(F)F)c3)n2)cc1	9.63	4.64	4.39	7.35	6.56	6.25	6.72	4.83	4.87	9	13.1	3.73	5.11	7.94	9.16	7.46	-0.82	0.72	-0.53	0.55
CS(=O)(=O)c1ccc(Oc2nccc(-c3c(-c4ccc(F)cc4)ncn3C3CCNCC3)n2)cc1	1.5	2.69	2.33	0.08	2.41	4.17	2.55	3.11	1.92	7.04	6.69	-1.81	2.28	3.96	6.81	1.59	-2.54	-3.09	-1.52	1.51
Fc1ccc(Oc2nccc(-c3c(-c4ccc(F)cc4)ncn3C3CCNCC3)n2)cc1	3.22	2.03	2.78	-0.55	8.01	0.21	3.25	1.64	5.36	2.78	3.97	7.68	10.5	7.48	9.5	15.7	-2.23	-2.77	-1.36	8.43
O=C(O)c1ccc(Oc2nccc(-c3c(-c4ccc(F)cc4)ncn3C3CCNCC3)n2)cc1	5.24	2.11	1.88	-0.54	7.42	3.22	2.07	3.24	5.54	4.65	3.57	3.75	8.51	9.04	9.4	12.2	-1.8	-4.6	-0.23	8.05
O=C1NC(=O)C(c2cccc([N+](=O)[O-])c2)=C1Nc1cc(Cl)c(O)c(Cl)c1	4.95	0.72	0.95	0.55	5.27	3.54	3.36	1.26	2.64	2.45	2.45	0.58	1.82	4.51	1.09	-0.12	1.05	0.6	1.08	-0.68
COc1ccccc1Oc1nccc(-c2c(-c3ccc(F)cc3)ncn2C2CCNCC2)n1	8	3.08	3.1	3.75	5.59	3.97	8.75	3.51	11.1	6.45	9.77	7.36	4.8	4.27	8	7.72	-2.6	-2.9	-0.24	8.47
O=C1NC(=O)C(c2ccccc2)=C1Nc1ccccc1	14.4	4.38	2.96	11.2	14.1	6.46	10.2	3.6	8.73	11.6	21.6	1.37	4.6	6.36	-1.81	13.1	-0.23	6.26	0.88	-3.29
COc1ccccc1C1=C(Nc2ccccc2)C(=O)NC1=O	9.91	1.2	1.76	1.5	13.1	6.25	12	4.29	13.4	8.48	14.2	7.21	3.34	9.7	5.48	27.4	0.69	4.8	2.4	-1.52
NC(=O)CCc1ccccc1Oc1nccc(-c2c(-c3ccc(F)cc3)ncn2C2CCNCC2)n1	3.03	-0.1	1.4	-4.8	-1.77	2.33	3.04	1.66	-0.56	-0.01	-0.45	-1.88	2.96	-1.19	-1.91	-3.03	-2.26	-3.62	0.1	-4.13
Fc1ccc(-c2ncn(C3CCNCC3)c2-c2ccnc(Oc3cccc(F)c3)n2)cc1	11.9	4.78	3.94	6.46	14.4	3.18	7.72	2.93	7.74	5.79	10	6.11	8.29	7.15	9.91	17.8	-0.73	-2.24	1.94	4.71
CC(C)(C)c1ccc(Oc2nccc(-c3c(-c4ccc(F)cc4)ncn3C3CCNCC3)n2)cc1	9.17	2.96	2.13	6.1	10.3	6.21	6.76	4.62	8.07	7.19	10.9	4.77	2.92	3.44	4.96	3.88	-1.17	-2.42	1.52	12.3
